The target of assay [1] is T1, Monkey CD3 on cynomolgus HSC-F cells (cynomolgus monkey, UniProt Q95LI5 22-198; Q95LI7 23-181; Q95LI8 22-171).
T1 construct: whole, on cells; also called Monkey CD3-expressing cynomolgus HSC-F cells; cynomolgus monkey CD3-expressing HSC-F cells
Kind of assay: flow cytometry on HSC-F cells. A general note: In flow cytometry, cells or beads pass a laser one at a time.

Assay [2] concerns the target T2, Human CD3εγ recombinant antigen (acrobiosystems, Cat. No. CDG-H52W5) (human, UniProt P07766 23-126; P09693 23-116).
T2 construct: Bought recombinant protein
Description: SPR chip (Carterra), antibody captured, antigen in flow.

Assay [3] addresses T3, Human CD3 on Jurkat cells (human, UniProt P07766; P09693; P04234).
T3 construct: whole, on cells; also called Human CD3-expressing Jurkat cells; Jurkat (naturally expressing human CD3)
Kind of assay: flow cytometry on Jurkat cells.

T1 sequence (Q95LI5 22-198, chain 1 of 3): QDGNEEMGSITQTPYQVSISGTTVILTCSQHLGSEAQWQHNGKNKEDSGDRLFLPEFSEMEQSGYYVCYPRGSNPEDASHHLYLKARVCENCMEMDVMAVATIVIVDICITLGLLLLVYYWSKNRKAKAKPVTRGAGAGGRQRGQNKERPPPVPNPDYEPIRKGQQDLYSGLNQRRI
T1 sequence (Q95LI7 23-181, chain 2 of 3, further chain): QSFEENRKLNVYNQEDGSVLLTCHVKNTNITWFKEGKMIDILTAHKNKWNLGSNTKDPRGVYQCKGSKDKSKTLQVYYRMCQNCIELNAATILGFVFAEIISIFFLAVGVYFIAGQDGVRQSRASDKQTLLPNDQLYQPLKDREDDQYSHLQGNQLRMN
T1 sequence (Q95LI8 22-171, chain 3 of 3, further chain): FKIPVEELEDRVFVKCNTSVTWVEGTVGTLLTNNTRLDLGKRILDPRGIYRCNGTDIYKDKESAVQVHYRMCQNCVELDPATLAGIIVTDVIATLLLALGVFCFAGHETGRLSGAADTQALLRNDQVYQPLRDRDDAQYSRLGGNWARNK

B1: CD3-MSLN bispecific antibody B35 (bispecific antibody, human IgG1, lambda)
heavy: EVQLVESGGGLVQPGGSLRLSCAASGFTFNTYAMNWVRQAPGKGLEWVARIRSKYNNYATYYADSVKDRFTISRDDSKSSLYLQMNNLKTEDTAVYYCVRHSNFGNSYVSWWAYWGQGTLVTVSSASTKGPSVFPLAPSSKSTSGGTAALGCLVKDYFPEPVTVSWNSGALTSGVHTFPAVLQSSGLYSLSSVVTVPSSSLGTQTYICNVNHKPSNTKVDKKV[letters of human IgG1 Fc with changes omitted]GGGGSGGGGSEVQLVESGGGLVQAGESLRLSCAVSGNIGSIRHMGWHRQDPGKERELVATITTVGTTYYANFVKGRFTISRDNAKNTVYLQMNSLKPEDTGVYYCRATAHPTDYWGQGTQVTVSS
light: [letters of about 100 residues omitted][letters of about 100 residues omitted]
notes: [VH35]-[CH]-[L]-[3C6 VHH] with [VL-1]-[CL]
A word on the EC50: it is the midpoint of the concentration-response curve. For orientation: Kd means the constant that tells how readily two partners part at equilibrium. The term koff denotes the first-order rate constant of dissociation. As a reminder, the kon is the second-order rate constant of association. With B1, it took 0.273 nM to reach a half-maximal effect in assay [1] (EC50). In addition, in assay [2], the Kd is 0.61 nM, the koff was 0.00068 s⁻¹ and the kon is 1.1e+06 M⁻¹ s⁻¹. Also, the EC50 in assay [3] amounted to 0.736 nM.

B2: CD3-MSLN bispecific antibody B38 (bispecific antibody, human IgG1, lambda)
heavy: EVQLVESGGGLVQPGGSLRLSCAASGFTFNTYAMNWVRQAPGKGLEWVARIRSKYNNYATYYADSVKDRFTISRDDSKSSLYLQMNNLKTEDTAVYYCVRHGNFLNSYVSWFQYWGQGTLVTVSSASTKGPSVFPLAPSSKSTSGGTAALGCLVKDYFPEPVTVSWNSGALTSGVHTFPAVLQSSGLYSLSSVVTVPSSSLGTQTYICNVNHKPSNTKVDKKV[letters of human IgG1 Fc with changes omitted]GGGGSGGGGSEVQLVESGGGLVQAGESLRLSCAVSGNIGSIRHMGWHRQDPGKERELVATITTVGTTYYANFVKGRFTISRDNAKNTVYLQMNSLKPEDTGVYYCRATAHPTDYWGQGTQVTVSS
light: [letters of about 100 residues omitted][letters of about 100 residues omitted]
notes: [VH38]-[CH]-[L]-[3C6 VHH] with [VL-1]-[CL]
B2 had an EC50 in assay [1] of 0.257 nM. Further, in assay [2], the Kd was found to be 1.5 nM, the koff was determined as 0.0021 s⁻¹ and the kon came out at 1.4e+06 M⁻¹ s⁻¹. The molecule also gave an EC50 in assay [3] of 0.165 nM.

B3: CD3-MSLN bispecific antibody B45 (bispecific antibody, human IgG1, lambda)
heavy: EVQLVESGGGLVQPGGSLRLSCAASGFTFNTYAMNWVRQAPGKGLEWVARIRSKYNNYATYYADSVKDRFTISRDDSKSSLYLQMNNLKTEDTAMYYCVRHSNFGNSYVSWFQYWGQGTLVTVSSASTKGPSVFPLAPSSKSTSGGTAALGCLVKDYFPEPVTVSWNSGALTSGVHTFPAVLQSSGLYSLSSVVTVPSSSLGTQTYICNVNHKPSNTKVDKKV[letters of human IgG1 Fc with changes omitted]GGGGSGGGGSEVQLVESGGGLVQAGESLRLSCAVSGNIGSIRHMGWHRQDPGKERELVATITTVGTTYYANFVKGRFTISRDNAKNTVYLQMNSLKPEDTGVYYCRATAHPTDYWGQGTQVTVSS
light: [letters of about 100 residues omitted][letters of about 100 residues omitted]
notes: [VH45]-[CH]-[L]-[3C6 VHH] with [VL-1]-[CL]
Regarding B3, the response in assay [1] was half-maximal at 0.285 nM (EC50). Also, in assay [2], the Kd turned out to be 0.95 nM, the koff came to 0.0016 s⁻¹ and the kon was 1.6e+06 M⁻¹ s⁻¹. Moreover, in assay [3], the response was half-maximal at 0.376 nM (EC50).

B4: CD3-MSLN bispecific antibody B44 (bispecific antibody, human IgG1, lambda)
heavy: EVQLVESGGGLVQPGGSLRLSCAASGFTFNTYAMNWVRQAPGKGLEWVARIRSKYNNYATYYADSVKDRFTISRDDSKSSLYLQMNNLKTEDTAMYYCVRHGNFQNSYISWFAYWGQGTLVTVSSASTKGPSVFPLAPSSKSTSGGTAALGCLVKDYFPEPVTVSWNSGALTSGVHTFPAVLQSSGLYSLSSVVTVPSSSLGTQTYICNVNHKPSNTKVDKKV[letters of human IgG1 Fc with changes omitted]GGGGSGGGGSEVQLVESGGGLVQAGESLRLSCAVSGNIGSIRHMGWHRQDPGKERELVATITTVGTTYYANFVKGRFTISRDNAKNTVYLQMNSLKPEDTGVYYCRATAHPTDYWGQGTQVTVSS
light: [letters of about 100 residues omitted][letters of about 100 residues omitted]
notes: [VH44]-[CH]-[L]-[3C6 VHH] with [VL-1]-[CL]
Take B4: in assay [1], the EC50 was 0.315 nM. Besides, in assay [2], the Kd was 2.6 nM, the koff stood at 0.0029 s⁻¹ and the kon was found to be 1.1e+06 M⁻¹ s⁻¹. In assay [3], this molecule returned an EC50 of 1.95 nM.

B5: CD3-MSLN bispecific antibody B40 (bispecific antibody, human IgG1, lambda)
heavy: EVQLVESGGGLVQPGGSLRLSCAASGFTFNTYAMNWVRQAPGKGLEWVARIRSKYNNYATYYADSVKDRFTISRDDSKSSLYLQMNNLKTEDTAMYYCVRAGNFGNSYVSWFQYWGQGTLVTVSSASTKGPSVFPLAPSSKSTSGGTAALGCLVKDYFPEPVTVSWNSGALTSGVHTFPAVLQSSGLYSLSSVVTVPSSSLGTQTYICNVNHKPSNTKVDKKV[letters of human IgG1 Fc with changes omitted]GGGGSGGGGSEVQLVESGGGLVQAGESLRLSCAVSGNIGSIRHMGWHRQDPGKERELVATITTVGTTYYANFVKGRFTISRDNAKNTVYLQMNSLKPEDTGVYYCRATAHPTDYWGQGTQVTVSS
light: [letters of about 100 residues omitted][letters of about 100 residues omitted]
notes: [VH40]-[CH]-[L]-[3C6 VHH] with [VL-1]-[CL]
The molecule B5 displayed an EC50 in assay [1] of 0.639 nM. For the same molecule, in assay [2], the Kd was found to be 1.5 nM, the koff amounted to 0.00065 s⁻¹ and the kon was determined as 430000 M⁻¹ s⁻¹. For the same molecule, the EC50 in assay [3] amounted to 3.77 nM.

B6: CD3-MSLN bispecific antibody B41 (bispecific antibody, human IgG1, lambda)
heavy: EVQLVESGGGLVQPGGSLRLSCAASGFTFNTYAMNWVRQAPGKGLEWVARIRSKYNNYATYYADSVKGRFTISRDDSKSSLYLQMNNLKTEDTAMYYCVRHSNFQNSYVSWFAYWGQGTLVTVSSASTKGPSVFPLAPSSKSTSGGTAALGCLVKDYFPEPVTVSWNSGALTSGVHTFPAVLQSSGLYSLSSVVTVPSSSLGTQTYICNVNHKPSNTKVDKKV[letters of human IgG1 Fc with changes omitted]GGGGSGGGGSEVQLVESGGGLVQAGESLRLSCAVSGNIGSIRHMGWHRQDPGKERELVATITTVGTTYYANFVKGRFTISRDNAKNTVYLQMNSLKPEDTGVYYCRATAHPTDYWGQGTQVTVSS
light: [letters of about 100 residues omitted][letters of about 100 residues omitted]
notes: [VH41]-[CH]-[L]-[3C6 VHH] with [VL-1]-[CL]
The molecule B6 gave an EC50 in assay [1] of 0.218 nM. Besides, in assay [2], the dissociation constant Kd turned out to be 1.4 nM, the off-rate (koff) amounted to 0.0025 s⁻¹ and the association rate constant (kon) turned out to be 1.8e+06 M⁻¹ s⁻¹. For the same molecule, a half-maximal effect in assay [3] (EC50) was put at 0.816 nM.

B7: CD3-MSLN bispecific antibody B36 (bispecific antibody, human IgG1, lambda)
heavy: EVQLVESGGGLVQPGGSLRLSCAASGFTFNTYAMNWVRQAPGKGLEWVARIRSKYNNYATYYADSVKDRFTISRDDSKSSLYLQMNSLKTEDTAMYYCVRHSNFPNSYVSWFAYWGQGTLVTVSSASTKGPSVFPLAPSSKSTSGGTAALGCLVKDYFPEPVTVSWNSGALTSGVHTFPAVLQSSGLYSLSSVVTVPSSSLGTQTYICNVNHKPSNTKVDKKV[letters of human IgG1 Fc with changes omitted]GGGGSGGGGSEVQLVESGGGLVQAGESLRLSCAVSGNIGSIRHMGWHRQDPGKERELVATITTVGTTYYANFVKGRFTISRDNAKNTVYLQMNSLKPEDTGVYYCRATAHPTDYWGQGTQVTVSS
light: [letters of about 100 residues omitted][letters of about 100 residues omitted]
notes: [VH36]-[CH]-[L]-[3C6 VHH] with [VL-1]-[CL]
Consider B7, for which the EC50 in assay [1] stood at 0.246 nM. Also, in assay [2], the Kd amounted to 1.1 nM, the koff is 0.002 s⁻¹ and the kon was determined as 1.7e+06 M⁻¹ s⁻¹. Moreover, in assay [3], the EC50 is 0.185 nM.

B8: CD3-MSLN bispecific antibody B42 (bispecific antibody, human IgG1, lambda)
heavy: EVQLVESGGGLVQPGGSLRLSCAASGFTFNTYAMNWVRQAPGKGLEWVARIRSKYNNYATYYADSVKGRFTISRDDSKSSLYLQMNNLKTEDTAMYYCVRHGNFQNSYVSWFQYWGQGTLVTVSSASTKGPSVFPLAPSSKSTSGGTAALGCLVKDYFPEPVTVSWNSGALTSGVHTFPAVLQSSGLYSLSSVVTVPSSSLGTQTYICNVNHKPSNTKVDKKV[letters of human IgG1 Fc with changes omitted]GGGGSGGGGSEVQLVESGGGLVQAGESLRLSCAVSGNIGSIRHMGWHRQDPGKERELVATITTVGTTYYANFVKGRFTISRDNAKNTVYLQMNSLKPEDTGVYYCRATAHPTDYWGQGTQVTVSS
light: [letters of about 100 residues omitted][letters of about 100 residues omitted]
notes: [VH42]-[CH]-[L]-[3C6 VHH] with [VL-1]-[CL]
For B8, the EC50 in assay [1] was 0.204 nM. In addition, in assay [2], the equilibrium dissociation constant (Kd) came out at 1.4 nM, the koff stood at 0.0018 s⁻¹ and the kon came to 1.2e+06 M⁻¹ s⁻¹. The molecule further registered an EC50 in assay [3] of 0.439 nM.

B9: CD3-MSLN bispecific antibody B39 (bispecific antibody, human IgG1, lambda)
heavy: EVQLVESGGGLVQPGGSLRLSCAASGFTFNTYAMNWVRQAPGKGLEWVARIRSKYNNYATYYADSVKDRFTISRDDSKSSLYLQMNNLKTEDTAMYYCVRHQNFGNSYVSWFQYWGQGTLVTVSSASTKGPSVFPLAPSSKSTSGGTAALGCLVKDYFPEPVTVSWNSGALTSGVHTFPAVLQSSGLYSLSSVVTVPSSSLGTQTYICNVNHKPSNTKVDKKV[letters of human IgG1 Fc with changes omitted]GGGGSGGGGSEVQLVESGGGLVQAGESLRLSCAVSGNIGSIRHMGWHRQDPGKERELVATITTVGTTYYANFVKGRFTISRDNAKNTVYLQMNSLKPEDTGVYYCRATAHPTDYWGQGTQVTVSS
light: [letters of about 100 residues omitted][letters of about 100 residues omitted]
notes: [VH39]-[CH]-[L]-[3C6 VHH] with [VL-1]-[CL]
On to B9, for which the EC50 in assay [1] came to 0.652 nM. Further, in assay [2], the Kd worked out at 12 nM, the koff is 0.0052 s⁻¹ and the kon was determined as 440000 M⁻¹ s⁻¹. In assay [3], this molecule showed an EC50 of 0.582 nM.

The values are drawn from patent US20250059278A1 (SICHUAN HUIYU PHARMACEUTICAL, published 2025).
